± gives the standard deviation of the averaged measurements. This is one part of the list.

This experiment has as its system PfAP2-EXP AP2 domain (GST-tagged). The experiment can be described thus: gcPBM binding intensity (ln(normalized median fluorescence intensity)); higher = stronger DNA binding. The method in brief:
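Using an Agilent 4 × 180k array, primer-extended double-stranded 36-bp intergenic genomic probes and negative controls were exposed for 1 h to GST-fused P. falciparum DNA-binding domains expressed in E. coli. Binding was carried out in 1× PBS with 1% milk, 0.2 mg/ml BSA, 0.5% salmon testes DNA and 0.03% Triton X-100, and protein was detected with Alexa488 anti-GST antibody and a 488 nm scan. Binding intensity is the highest Masliner-normalised natural-log median intensity across replicate spots of either probe orientation.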
Take “TGTTTTCTTGATTATTGTACTTTAATTAGTAATATG [XGTACX_site8674]”: the “gcPBM binding intensity (ln)” value worked out at 8.7 ± 0.37.

With “TGAATATTCATGTGTGTGCGCATGTTGTTAGACCAT [GTGCAC_site9869]”, the “gcPBM binding intensity (ln)” value amounted to 9.02 ± 0.38.

For “AAAAATATTATAAGCACACATATATATATATATATA [CACACA_site2458]”, the “gcPBM binding intensity (ln)” value was 10.3 ± 0.28. The same measure for “TATAATATGTTATATACACACATTATAAAATACACA [CACACA_site6742]”: 8.49 ± 0.37; for “AAAAAAAAAATTAATTGTACTAAAAAAATATTATAT [XGTACX_site8903]”: 8.41 ± 0.37; for “TAATAATAAATAAAATGTACATATGAACAAATAAGT [XGTACX_site6710]”: 9.14 ± 0.3. Then “ATATATATATATATATGTACATACATACAATCATAT [XGTACX_site6410]”, with 10.3 ± 0.45; and “ATGTTGTACAGACACACACACAAAAAAAAAATAAAA [CACACA_site7184]”, with 8.62 ± 0.54.

Consider “TATAAATTTTGTTTAGCACACACACCGACATACATA [CACACA_site9033]”, for which the “gcPBM binding intensity (ln)” value came out at 8.83 ± 0.47. As for “CTTACATATTACATATGTACATATACACCTTATGTC [XGTACX_site4679]”, the “gcPBM binding intensity (ln)” value was found to be 8.69 ± 0.37. The same measure for “TATAATAGCTTCTTTACACACACCATTTTTTTTTTT [CACACA_site1456]”: 8.59 ± 0.26; for “ATATATTTTTAATTTGCATGTAGTAAAGCCTTAAAT [TGCATGCA_site593]”: 8.88 ± 0.25; for “CATCAAGTGAATTGTTGTACTTTACATTGTTTTTAT [XGTACX_site7261]”: 9.09 ± 0.59. The same measure for “TTTAATTTTTATATAACACACATATTGGAATTATGT [CACACA_site734]”: 8.37 ± 0.38; for “TTATGTATTACCTGCCGTACTTCTAAAATAATTAAA [XGTACX_site1716]”: 8.81 ± 0.38; for “TTTTTTACATACAGAAATATATAATATAAAATAAAT [GTGCAC_negctrl_site278]”: 8.28 ± 0.52. The same measure for “TTAAATGTGAAGTGAATACACACCTAATAAATATAA [CACACA_site3194]”: 8.33 ± 0.38; for “ATATATTTACTTAATACACACAAAAAAAAAAAAAAA [CACACA_site3657]”: 8.21 ± 0.52. For “GAATCCTTAATATGAACACACAAATATATTACCCAT [CACACA_site186]”, the “gcPBM binding intensity (ln)” value was found to be 8.63 ± 0.48.

In the case of TTTTGTTATTTTTCAGTGCAATATGATAATAATATA, the “gcPBM binding intensity (ln)” value was determined as 8.71 ± 0.23. The same measure for “AGAATTTTATTATATTGTACTTTTTATAAACCTTGT [XGTACX_site7495]”: 8.52 ± 0.4. “TCTTTTTAACAAAAAAAAAAAAAAAAAAAAAAATTA [CACACA_negctrl_site1637]”: the “gcPBM binding intensity (ln)” value is 7.84 ± 0.33. The same measure for “TACATTTATACTACTGCATTCAAAAAAAATAAAAAA [TGCATGCA_negctrl_site157]”: 8.31 ± 0.3; for TGCTTATTTAGAATTGTGCACAGCGAATATTCTGTT: 8.85 ± 0.3; for “TTTTTTTTTTCAAATACATGCATTTATGTATAATAC [TGCATGCA_site722]”: 9.07 ± 0.31. The same measure for “TAGGAAAAAAATACAGTGCAATTTTTATATAAATAA [GTGCAC_site9979]”: 8.55 ± 0.43. The same measure for “TTTATATAAATCAAATGTACATATTCCAAATATATA [XGTACX_site8515]”: 8.38 ± 0.39; for “TACATATTTTATAACTGTACTTTTTTATTATCCAAT [XGTACX_site5396]”: 8.69 ± 0.35; for “TTTTTTTTTTTTTTGTGTACTAATATTATAAATTTT [XGTACX_site4405]”: 8.29 ± 0.13.

As to “AGAAAAGATAAAAATAGTACATATATATTTACTTAT [XGTACX_site7820]”, the “gcPBM binding intensity (ln)” value is 8.38 ± 0.38. The same measure for “TATATTATTTTTAGAAGTACTTATTGTTATAATTCT [XGTACX_site1015]”: 8.42 ± 0.37. Consider “CTCCTTTCAAAAAAATGTACATGTTTACATTTCAAG [XGTACX_site7342]”, for which the “gcPBM binding intensity (ln)” value was 8.72 ± 0.4.

Consider “ATAAATATTTATAACAGTACATATTTACTATCCTAA [XGTACX_site4497]”, for which the “gcPBM binding intensity (ln)” value was found to be 8.29 ± 0.29.

Regarding “TTATATATAATATGACGTACAATTATACATTTTATG [XGTACX_site7598]”, the “gcPBM binding intensity (ln)” value worked out at 8.51 ± 0.28.

Take “TATACACATATTTTTACACACATATTTTTTCATATA [CACACA_site7244]”: the “gcPBM binding intensity (ln)” value turned out to be 8.7 ± 0.38. Then “ACGATTAAATCGATAATACACACTAAATGTAAAACA [CACACA_site119]”, with 8.63 ± 0.49; and “ATTTATTTGAAGAATTGTACTAAATTATATAGCGGT [XGTACX_site4998]”, with 8.76 ± 0.39. The same measure for “TATAAAAAAATATATATATATATTATATGTGTAGAA [TGCATGCA_negctrl_site391]”: 8.63 ± 0.42; for “ATTTTAATTTGTTATACACACACAAAAAAAATTATA [CACACA_site9306]”: 8.38 ± 0.45. Regarding “TATATCAAAATACATACACACATTTGTATTTACATT [CACACA_site5485]”, the “gcPBM binding intensity (ln)” value amounted to 8.39 ± 0.35. Then “TTTTTTTTTAATCATGCACACTGTTAAAAGAATAAA [CACACA_site4817]”, with 8.46 ± 0.28; and “TATATATGGGTACTAATTCCTTTAATTTCTTTAATT [CACACA_negctrl_site949]”, with 8.4 ± 0.35; and “TAGTAAAAGATATACACACACCAAAAAATATAATTA [CACACA_site7142]”, with 8.65 ± 0.52.

Consider “AATTATATTCAAAATGGTACACACAATATTTAATTG [XGTACX_site5521]”, for which the “gcPBM binding intensity (ln)” value is 8.46 ± 0.4. The same measure for “AAAAAAAAATTAGGGGTGCCATTTGCTGCTGTGCTT [GTGCAC_site9913]”: 8.39 ± 0.49; for “TTTTGTATTTCTCACACACACATAAGTAAACAATAA [CACACA_site5105]”: 8.7 ± 0.43.

Turning to “ATTAATATGAATAAAACACACATATATAACTTGTAA [CACACA_site6989]”, the “gcPBM binding intensity (ln)” value came out at 8.43 ± 0.37.

Turning to “AAAAATTTGGCATACACACACACACGCACACGCACA [CACACA_site6422]”, the “gcPBM binding intensity (ln)” value amounted to 8.66 ± 0.52. Then “AATTATACTCACGTTACACACACACTATAAATATAT [CACACA_site7863]”, with 8.85 ± 0.42; and “CCTATAAAACCATATACACACATATAAATAAAAAAA [CACACA_site7809]”, with 8.63 ± 0.45; and “TAAACTATATTTACATGTACATATAATATTAAATAA [XGTACX_site3528]”, with 8.45 ± 0.31. The same measure for “TGATAATAAGCATACACACACACACCCAAAAAAAAA [CACACA_site721]”: 8.67 ± 0.48; for “TATTACATTATTCAAAAAAATTTATATGGTTATAGG [CACACA_negctrl_site1657]”: 8.13 ± 0.42. Then “ATATATATATATATATATATATATATGATTATTACT [GTGCAC_negctrl_site109]”, with 10.2 ± 0.56. For “TTTTTTTTTTCTTTTTTTCTCATGAAATTCTAAATG [CACACA_negctrl_site918]”, the “gcPBM binding intensity (ln)” value was determined as 8.31 ± 0.4. With “AACTAAATGTTATTCGCACACGGAATTTATTTAATG [CACACA_site3664]”, the “gcPBM binding intensity (ln)” value was determined as 8.37 ± 0.35.

Take “AAATAAAAAAAAAAAAAAAATAACTTAAATGGGATA [TGCATGCA_negctrl_site595]”: the “gcPBM binding intensity (ln)” value amounted to 8.15 ± 0.63.

For the sequence “TTTTATTATTTGTCTTGTACTCATTGTAAGAGTATG [XGTACX_site1538]”, the “gcPBM binding intensity (ln)” value was 8.66 ± 0.49. Regarding “ATTAAATACATTAACACACACACAAATAAATACATA [CACACA_site5583]”, the “gcPBM binding intensity (ln)” value stood at 8.8 ± 0.56. The same measure for “TACATACATACATACACACACACATCTATATTTATA [CACACA_site6171]”: 9.205 ± 0.007; for “GACAGATTATAGCATAGTACTCATACATACATACAT [XGTACX_site1252]”: 9.27 ± 0.099.

As for “TTTCAAAAATTATTTTGTACATATAATTAATATACG [XGTACX_site512]”, the “gcPBM binding intensity (ln)” value was determined as 8.34 ± 0.43. Then “AATTTCTTCCATTGTAGTACTCAATTTTTTTTTGTT [XGTACX_site5847]”, with 9.04 ± 0.56; and “CACATATACAAAAAGAAATGTTTAGTTGAAAATTAA [CACACA_negctrl_site1407]”, with 8.25 ± 0.42.

With “GTGTAATATTATATATATATATATAATATATATACA [CACACA_negctrl_site263]”, the “gcPBM binding intensity (ln)” value was 8.32 ± 0.27. As for “AAAAAAAAAAAAATGGTGCAACTTTGTTAAAGGAAA [GTGCAC_site9950]”, the “gcPBM binding intensity (ln)” value was determined as 8.875 ± 0.064. The same measure for “ATTTAAAAGTTGGTAGTGCATTAAAAATAACAAAAA [GTGCAC_site9835]”: 9.19 ± 0.17; for “ATATATATATATGCATGTACATATATTTGTTATATC [XGTACX_site3197]”: 9.82 ± 0.45; for “TTCCCTTATTTTGTATGTACACAATTTATCATGTTG [XGTACX_site2896]”: 9.07 ± 0.35.

Consider AAACAAAGGGAACATGTGCACTTACAAAAAAAAAGA, for which the “gcPBM binding intensity (ln)” value was 9.14 ± 0.37. Then “AATAGATATATAAATACACACAAACATACCTATATA [CACACA_site7823]”, with 8.79 ± 0.41; and “TCACACCTTTTTGGTTGTACTTAAATTTCTTTTTTT [XGTACX_site6438]”, with 8.41 ± 0.35; and “ATTTATTTTAATTTTTTTTTTTCTCTTTTGGATCTA [CACACA_negctrl_site1408]”, with 8.22 ± 0.41. The same measure for “AATGAATTTAATTCTACTATTTTTTTTTTAAATATT [XGTACX_negctrl_site296]”: 8.06 ± 0.33; for “ATTAGGCATATTTTCTGTACACAATAATAAAAAAAA [XGTACX_site3957]”: 8.63 ± 0.18.

With “TGTAATATGAAATGTGTACACACGCACCCACAAAAA [CACACA_site8948]”, the “gcPBM binding intensity (ln)” value is 9.11 ± 0.23. With “TTCTCAAAGTTTACGTGTACATAAATTATATAAATG [XGTACX_site2622]”, the “gcPBM binding intensity (ln)” value turned out to be 8.69 ± 0.16.

As to “AATTATACATATATTTAACACACATTTTATAAAGTG [CACACA_site8362]”, the “gcPBM binding intensity (ln)” value is 8.32 ± 0.27. The same measure for “ATATATATATATAATTGTACATGTGTGTATAATTTG [XGTACX_site2417]”: 9.8 ± 0.48. Then “TTTTATTTTATATAACAACAAAATGGAAATATATAT [GTGCAC_negctrl_site71]”, with 8.62 ± 0.41; and “TAAATGAAAATAAATTAACACACAATTTTAATATTG [CACACA_site8360]”, with 8.12 ± 0.46; and “ATATTATGAAGGGATATTTTCAAAAATATTAGGAGA [CACACA_negctrl_site942]”, with 8.64 ± 0.41. Then “GTCAATATTTAGATATGTACTAAGGAGTGCTATATA [XGTACX_site222]”, with 8.625 ± 0.064; and “CAATTTTTATGTGTGTGTACTCATTTGTTTTATAAA [XGTACX_site406]”, with 8.74 ± 0.32; and “ATACAACAGATATATACACACATATAACAATAATAA [CACACA_site7560]”, with 8.66 ± 0.42. As to “TTGGAATAATATAAATAAATAAATATATATATATAT [CACACA_negctrl_site900]”, the “gcPBM binding intensity (ln)” value amounted to 9.9 ± 0.35. The same measure for “TTTCTTTTTGTTCGTGTACACACATGAAATTTATAA [CACACA_site8466]”: 8.99 ± 0.22; for “AAAAAAAAAAAATGTGCACACGCGTACACCCAAAAA [CACACA_site8614]”: 8.6 ± 0.3.

These data come from the supplement of paper PMC11417369.
